# Assay results published in the supplement of paper PMC8728848.
# This is one part of the list.
# Experiments:
# Assay in all cases: glycan array binding signal (z-score within array); higher = stronger binding
# Conditions in all cases: glycan notation: IUPAC condensed, linker removed
# [1] = molecular target: Neu5Ac(a2-6)Gal(b1-4)GlcNAc(b1-3)Gal(b1-4)[Fuc(a1-3)]GlcNAc(b1-3)Gal(b1-4)[Fuc(a1-3)]GlcNAc
# In short: (§1)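 Glycan array binding is given as a within-array Z-score, which can be read as non-binding when negative. The arrays, 3228 of them, came from the Consortium for Functional Glycomics database and were retained only where the protein sequence was available. Z-scores were averaged across arrays of the same protein sequence at different concentrations or buffers and across linkers.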
# [2] = molecular target: Neu5Ac(a2-6)Gal(b1-4)GlcNAc(b1-3)GalNAc
# In short: as §1
# [3] = molecular target: Neu5Ac(a2-6)Gal(b1-4)GlcNAc(b1-3)[Neu5Ac(a2-6)Gal(b1-4)GlcNAc(b1-6)]GalNAc
# In short: as §1
# [4] = molecular target: Neu5Ac(a2-6)Gal(b1-4)GlcNAc(b1-6)GalNAc
# In short: as §1
# [5] = molecular target: Neu5Ac(a2-6)Gal(b1-4)GlcNAc(b1-6)[Gal(b1-3)GlcNAc(b1-3)]Gal(b1-4)Glc
# In short: as §1
# [6] = molecular target: Neu5Ac(a2-6)Gal(b1-4)GlcNAc(b1-6)[Gal(b1-3)]GalNAc
# In short: as §1
# [7] = molecular target: Neu5Ac(a2-6)Gal(b1-4)GlcNAc6S
# In short: as §1
# [8] = molecular target: Neu5Ac(a2-6)GalNAc
# In short: as §1
# [9] = molecular target: Neu5Ac(a2-6)GalNAc(b1-4)GlcNAc
# In short: as §1
# [10] = molecular target: Neu5Ac(a2-6)GalNAc(b1-4)GlcNAc6S
# In short: as §1
# [11] = molecular target: Neu5Ac(a2-6)GlcNAc(b1-4)GlcNAc
# In short: as §1
# [12] = molecular target: Neu5Ac(a2-6)GlcNAc(b1-4)GlcNAc(b1-4)GlcNAc
# In short: as §1
# [13] = molecular target: Neu5Ac(a2-8)Neu5Ac
# In short: as §1
# [14] = molecular target: Neu5Ac(a2-8)Neu5Ac(a2-3)Gal(b1-3)GalNAc(b1-4)[Neu5Ac(a2-3)]Gal(b1-4)Glc
# In short: as §1
# [15] = molecular target: Neu5Ac(a2-8)Neu5Ac(a2-3)Gal(b1-3)GalNAc(b1-4)[Neu5Ac(a2-8)Neu5Ac(a2-3)]Gal(b1-4)Glc
# In short: as §1
# [16] = molecular target: Neu5Ac(a2-8)Neu5Ac(a2-3)Gal(b1-4)Glc
# In short: as §1
# [17] = molecular target: Neu5Ac(a2-8)Neu5Ac(a2-3)Gal(b1-4)GlcNAc
# In short: as §1
# [18] = molecular target: Neu5Ac(a2-8)Neu5Ac(a2-3)[Gal(b1-3)GalNAc(b1-4)]Gal(b1-4)Glc
# In short: as §1
# [19] = molecular target: Neu5Ac(a2-8)Neu5Ac(a2-3)[GalNAc(b1-4)]Gal(b1-4)Glc
# In short: as §1
# [20] = molecular target: Neu5Ac(a2-8)Neu5Ac(a2-8)Neu5Ac
# In short: as §1
# [21] = molecular target: Neu5Ac(a2-8)Neu5Ac(a2-8)Neu5Ac(a2-3)Gal(b1-4)Glc
# In short: as §1
# [22] = molecular target: Neu5Ac(a2-8)Neu5Ac(a2-8)Neu5Ac(a2-3)[Gal(b1-3)GalNAc(b1-4)]Gal(b1-4)Glc
# In short: as §1
# [23] = molecular target: Neu5Ac(a2-8)Neu5Ac(a2-8)Neu5Ac(a2-3)[GalNAc(b1-4)]Gal(b1-4)Glc
# In short: as §1
# [24] = molecular target: Neu5Ac(a2-8)Neu5Ac(a2-8)Neu5Ac(a2-8)Neu5Ac(a2-3)[GalNAc(b1-4)]Gal(b1-4)Glc
# In short: as §1
# [25] = molecular target: Neu5Ac(a2-8)Neu5Gc(a2-3)Gal(b1-4)GlcNAc
# In short: as §1
# [26] = molecular target: Neu5Ac(b2-6)Gal(b1-4)GlcNAc
# In short: as §1
# [27] = molecular target: Neu5Ac(b2-6)GalNAc
# In short: as §1
# [28] = molecular target: Neu5Ac9Ac(a2-3)Gal(b1-3)GlcNAc
# In short: as §1
# [29] = molecular target: Neu5Ac9Ac(a2-3)Gal(b1-4)GlcNAc
# In short: as §1
# [30] = molecular target: Neu5Ac9Ac(a2-6)Gal(b1-4)GlcNAc
# In short: as §1
# [31] = molecular target: Neu5Gc(a2-3)Gal(b1-3)GlcNAc
# In short: as §1
# [32] = molecular target: Neu5Gc(a2-3)Gal(b1-3)[Fuc(a1-4)]GlcNAc
# In short: as §1
# [33] = molecular target: Neu5Gc(a2-3)Gal(b1-4)Glc
# In short: as §1
# [34] = molecular target: Neu5Gc(a2-3)Gal(b1-4)GlcNAc
# In short: as §1
# [35] = molecular target: Neu5Gc(a2-3)Gal(b1-4)GlcNAc(b1-3)Gal(b1-4)GlcNAc(b1-2)Man(a1-3)[Neu5Gc(a2-3)Gal(b1-4)GlcNAc(b1-3)Gal(b1-4)GlcNAc(b1-2)Man(a1-6)]Man(b1-4)GlcNAc(b1-4)GlcNAc
# In short: as §1
# [36] = molecular target: Neu5Gc(a2-3)Gal(b1-4)[Fuc(a1-3)]GlcNAc
# In short: as §1
# [37] = molecular target: Neu5Gc(a2-6)Gal(b1-4)GlcNAc
# In short: as §1
# [38] = molecular target: Neu5Gc(a2-6)GalNAc
# In short: as §1
# [39] = molecular target: Neu5Gc(a2-8)Neu5Ac(a2-3)Gal(b1-4)GlcNAc
# In short: as §1
# [40] = molecular target: Neu5Gc(a2-8)Neu5Gc(a2-3)Gal(b1-4)GlcNAc
# In short: as §1
# [41] = molecular target: Neu5Gc(a2-8)Neu5Gc(a2-3)Gal(b1-4)GlcNAc(b1-3)Gal(b1-4)GlcNAc
# In short: as §1
# [42] = molecular target: Neu5Gc(a2-8)Neu5Gc(a2-6)Gal(b1-4)GlcNAc
# In short: as §1
# [43] = molecular target: Neu5Gc(b2-6)Gal(b1-4)GlcNAc
# In short: as §1
binder,measurement,setting,value
PpFlo2 (Pichia pastoris) (protein) MGSSHHHHHHSSGLVPRGSHMDDSGNGDNSDTAYGCDITTNAVDGFDATIYQYNANDLRLIRDPTFMSTGYLGRNVLNKISGVTVPGFNIWNPSSRTATVYGVKNVNYYNMVLELKGYFKADVSGDYKLTLSHIDDSSMLFFGKETAFKCCDAGSIPLNEAPTDYSLFTIKPSNQVNSEVISATQYLEAGKYYPVRIVFVNALERARFDFKLTIPSGAVLDDFQNYIYQFGDLDENSCHE,glycan array binding signal (z-score),[1],-0.263
same,glycan array binding signal (z-score),[2],-0.269
same,glycan array binding signal (z-score),[3],-0.053
same,glycan array binding signal (z-score),[4],-0.275
same,glycan array binding signal (z-score),[5],-0.26
same,glycan array binding signal (z-score),[6],-0.265
same,glycan array binding signal (z-score),[7],-0.297
same,glycan array binding signal (z-score),[8],-0.3
same,glycan array binding signal (z-score),[9],-0.299
same,glycan array binding signal (z-score),[10],-0.276
same,glycan array binding signal (z-score),[11],-0.281
same,glycan array binding signal (z-score),[12],-0.275
same,glycan array binding signal (z-score),[13],-0.296
same,glycan array binding signal (z-score),[14],-0.266
same,glycan array binding signal (z-score),[15],-0.2
same,glycan array binding signal (z-score),[16],-0.301
same,glycan array binding signal (z-score),[17],-0.272
same,glycan array binding signal (z-score),[18],-0.297
same,glycan array binding signal (z-score),[19],-0.301
same,glycan array binding signal (z-score),[20],-0.301
same,glycan array binding signal (z-score),[21],-0.298
same,glycan array binding signal (z-score),[22],-0.275
same,glycan array binding signal (z-score),[23],-0.303
same,glycan array binding signal (z-score),[24],-0.302
same,glycan array binding signal (z-score),[25],-0.27
same,glycan array binding signal (z-score),[26],-0.301
same,glycan array binding signal (z-score),[27],-0.304
same,glycan array binding signal (z-score),[28],-0.299
same,glycan array binding signal (z-score),[29],-0.297
same,glycan array binding signal (z-score),[30],-0.297
same,glycan array binding signal (z-score),[31],-0.301
same,glycan array binding signal (z-score),[32],-0.265
same,glycan array binding signal (z-score),[33],-0.298
same,glycan array binding signal (z-score),[34],-0.299
same,glycan array binding signal (z-score),[35],-0.245
same,glycan array binding signal (z-score),[36],-0.293
same,glycan array binding signal (z-score),[37],-0.294
same,glycan array binding signal (z-score),[38],-0.298
same,glycan array binding signal (z-score),[39],-0.277
same,glycan array binding signal (z-score),[40],-0.271
same,glycan array binding signal (z-score),[41],-0.255
same,glycan array binding signal (z-score),[42],-0.273
same,glycan array binding signal (z-score),[43],-0.298
